This note sets out measurements from the RNAGym collection of RNA variant scans (doi:10.1073/pnas.2313332121).

Variants at the background level are over-represented here.

B1: TPR 5TU (parent)
chain: GGAUCUUCUCGAUCUAACAAAAAAGACAAAUCUGCCACAAAGCUUGAGAGCAUCUUCGGAUGCAGAGGCGGCAGCCUUCGGUGGCGCGAUAGCGCCAACGUUCUCAACUAUGACACGCAAAACGCGUGCUCCGUUGAAUGGAGUUUAUCAUG

This data set covers variants of B1. The data set can be described thus: polymerase ribozyme fitness, log enrichment relative to wild type (log ratio); higher = more active; in vitro selection for triplet polymerase activity. The method in brief: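 For each subunit of a heterodimeric triplet polymerase ribozyme, a mutant library was built by PCR and transcribed, then taken through a single in vitro selection round in triplicate. Selection involved annealing to a biotinylated primer, the partner subunit and triplets, incubation frozen at −7 °C, gel excision of extended constructs, capture on streptavidin beads and RT-PCR. Genotypes were retained after Illumina sequencing of inputs and outputs only with ≥10 input reads and ≥1 read in each output. Fitness is defined as the logarithm of a genotype's enrichment relative to wild-type enrichment, using inverse-variance-weighted averages across replicates, with the logarithm taken to base 2.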
G59C C75U C132G: the “polymerase ribozyme fitness (log ratio)” value is no more than -4.2.

Consider G58C C75G A97G, for which the “polymerase ribozyme fitness (log ratio)” value is no more than -4.2.

G59A C75G G94U C95U: the “polymerase ribozyme fitness (log ratio)” value is -3.76.

Consider G59A A60G A64C G70U C79A U82A G83C A91C, for which the “polymerase ribozyme fitness (log ratio)” value is no more than -4.2.

A60G G70C A89C: the “polymerase ribozyme fitness (log ratio)” value was -3.24.

On to C63U A115G A150C, for which the “polymerase ribozyme fitness (log ratio)” value was no more than -4.2.

U61A C96G: the “polymerase ribozyme fitness (log ratio)” value is -2.6.

Regarding A64G G67U G84U C103A G112C A115U U146C, the “polymerase ribozyme fitness (log ratio)” value was no more than -4.2.

On to A64C A66C C69A C85U U127A G128U, for which the “polymerase ribozyme fitness (log ratio)” value was no more than -4.2.

Turning to A60G G68U C85A G94A A147C, the “polymerase ribozyme fitness (log ratio)” value was no more than -4.2.

As to U61A U134G G143U, the “polymerase ribozyme fitness (log ratio)” value is no more than -4.2.

Take G59A C76G C85G: the “polymerase ribozyme fitness (log ratio)” value was no more than -4.2.

For the variant G58C G94C C96G A115C, the “polymerase ribozyme fitness (log ratio)” value was no more than -4.2.

For the variant A64U G88C A142G, the “polymerase ribozyme fitness (log ratio)” value is no more than -4.2.

Turning to G58U U61G C63U G74C G141C, the “polymerase ribozyme fitness (log ratio)” value was no more than -4.2.

In the case of G58C G59C A73G G94U A110U, the “polymerase ribozyme fitness (log ratio)” value is no more than -4.2.

With U61A C75U C87G, the “polymerase ribozyme fitness (log ratio)” value is no more than -4.2.

In the case of G58C C63G C96G, the “polymerase ribozyme fitness (log ratio)” value is -0.61.

A60U U77A: the “polymerase ribozyme fitness (log ratio)” value is no more than -4.2.

Turning to G59A U78A G92U C96A C114U A121U, the “polymerase ribozyme fitness (log ratio)” value was no more than -4.2.

Take G59A A66C G88A U134A G143C A147U U151A: the “polymerase ribozyme fitness (log ratio)” value is no more than -4.2.

Turning to A60C G83U A121U, the “polymerase ribozyme fitness (log ratio)” value is -2.35.

As for A64U G92A G117C U145A, the “polymerase ribozyme fitness (log ratio)” value was no more than -4.2.

For G59A C75G C96A C99G A121C, the “polymerase ribozyme fitness (log ratio)” value is no more than -4.2.

Turning to A60G C75A C95U C114U A150C, the “polymerase ribozyme fitness (log ratio)” value was no more than -4.2.

On to A64G A91C U146G, for which the “polymerase ribozyme fitness (log ratio)” value is no more than -4.2.

On to G62C C95U C96A, for which the “polymerase ribozyme fitness (log ratio)” value was -3.59.

As to G59C G74A G80C U127G A142G, the “polymerase ribozyme fitness (log ratio)” value was no more than -4.2.

As for G62U C72G C93A, the “polymerase ribozyme fitness (log ratio)” value was no more than -4.2.

G59A A60C U90G: the “polymerase ribozyme fitness (log ratio)” value is no more than -4.2.

Consider G59A C118G U130A C132G G140A, for which the “polymerase ribozyme fitness (log ratio)” value is no more than -4.2.

Consider U61G G68A, for which the “polymerase ribozyme fitness (log ratio)” value was no more than -4.2.

For the variant C63U G81A A91U C99U G100A, the “polymerase ribozyme fitness (log ratio)” value was no more than -4.2.

G59C U82G G94A C99G U139C G143C: the “polymerase ribozyme fitness (log ratio)” value was no more than -4.2.

Regarding A60G U134A, the “polymerase ribozyme fitness (log ratio)” value was -1.8.

With C63G A91C C93G U134C, the “polymerase ribozyme fitness (log ratio)” value was no more than -4.2.

As for C63U C87G C93U U144C, the “polymerase ribozyme fitness (log ratio)” value is no more than -4.2.

In the case of A60G C76A A91G C95U A107C, the “polymerase ribozyme fitness (log ratio)” value was no more than -4.2.

As for G62C C63A C116G, the “polymerase ribozyme fitness (log ratio)” value was -1.77.

G58U G141C: the “polymerase ribozyme fitness (log ratio)” value stood at 0.501.

Regarding C63U G68A C85U C114U G124A, the “polymerase ribozyme fitness (log ratio)” value is no more than -4.2.

For the variant U61A A64G G140C U144C, the “polymerase ribozyme fitness (log ratio)” value was no more than -4.2.

With G59U G68A G83A A89U G94U G128U, the “polymerase ribozyme fitness (log ratio)” value is no more than -4.2.

Consider A60G U90G, for which the “polymerase ribozyme fitness (log ratio)” value was no more than -4.2.

With C63U A66C C93A G94A C108G G117U, the “polymerase ribozyme fitness (log ratio)” value was no more than -4.2.

As to G58U G84A U90G, the “polymerase ribozyme fitness (log ratio)” value is no more than -4.2.

Regarding U61G G83U G86A C149U, the “polymerase ribozyme fitness (log ratio)” value is no more than -4.2.

U61A C76A G83C C118A: the “polymerase ribozyme fitness (log ratio)” value is no more than -4.2.

Turning to U61A G92U, the “polymerase ribozyme fitness (log ratio)” value was -3.41.

Consider A60G A73U C93U, for which the “polymerase ribozyme fitness (log ratio)” value is -1.38.

Take A60G C93G: the “polymerase ribozyme fitness (log ratio)” value was -3.44.

A60U G68C G84U C99A U145A: the “polymerase ribozyme fitness (log ratio)” value was no more than -4.2.

For A60C C87A A98U, the “polymerase ribozyme fitness (log ratio)” value is no more than -4.2.

On to A64U C79A C93U C99A, for which the “polymerase ribozyme fitness (log ratio)” value is no more than -4.2.

As for G59C C93U C116U U135G, the “polymerase ribozyme fitness (log ratio)” value was -3.78.

Regarding A60U C99U A106C A107G U139A A150G, the “polymerase ribozyme fitness (log ratio)” value is no more than -4.2.

For G62C C72U C93A, the “polymerase ribozyme fitness (log ratio)” value is no more than -4.2.

For the variant G58C C85A A110C U111G, the “polymerase ribozyme fitness (log ratio)” value is no more than -4.2.

With G58U C69A U111C G124U U139C, the “polymerase ribozyme fitness (log ratio)” value is no more than -4.2.

On to G58C G83A C87G U90A A113U G133A G141A, for which the “polymerase ribozyme fitness (log ratio)” value was no more than -4.2.

In the case of C63U A66C U90G G141U, the “polymerase ribozyme fitness (log ratio)” value is no more than -4.2.

On to G59U A60C, for which the “polymerase ribozyme fitness (log ratio)” value was -2.96.

In the case of G59U G84U, the “polymerase ribozyme fitness (log ratio)” value was -2.72.

In the case of U61G C76G C123U, the “polymerase ribozyme fitness (log ratio)” value was no more than -4.2.

Regarding A60G G71A A106U, the “polymerase ribozyme fitness (log ratio)” value is no more than -4.2.

As to G62A U82C C95A U101C U148A, the “polymerase ribozyme fitness (log ratio)” value was no more than -4.2.

For G59A U77A C105A, the “polymerase ribozyme fitness (log ratio)” value is no more than -4.2.

Take U61C C125U C129G: the “polymerase ribozyme fitness (log ratio)” value was no more than -4.2.

Take A64G G68U C76U A91U G92A A150U: the “polymerase ribozyme fitness (log ratio)” value was no more than -4.2.

Regarding A60U C93U U151G, the “polymerase ribozyme fitness (log ratio)” value was no more than -4.2.

Take G58C G84A A106G C125G A137C: the “polymerase ribozyme fitness (log ratio)” value was no more than -4.2.

Regarding A60G A64C G70A C93U A113U C116G U139G, the “polymerase ribozyme fitness (log ratio)” value is no more than -4.2.

On to G59C A91C A119G, for which the “polymerase ribozyme fitness (log ratio)” value is no more than -4.2.

As to A64C C69G C103G U139G, the “polymerase ribozyme fitness (log ratio)” value is no more than -4.2.

On to A64G G81A G84A G86A, for which the “polymerase ribozyme fitness (log ratio)” value is no more than -4.2.

Consider U61A G88A, for which the “polymerase ribozyme fitness (log ratio)” value is no more than -4.2.

On to U61A G88U, for which the “polymerase ribozyme fitness (log ratio)” value is no more than -4.2.

Take U61A G94U A106G: the “polymerase ribozyme fitness (log ratio)” value is -2.71.

Regarding G59A C132G U139C, the “polymerase ribozyme fitness (log ratio)” value is -2.96.

With G59C U61A, the “polymerase ribozyme fitness (log ratio)” value is -1.51.

G59C C85A A107U: the “polymerase ribozyme fitness (log ratio)” value is no more than -4.2.

Consider A64U A66C C75G G88A, for which the “polymerase ribozyme fitness (log ratio)” value was no more than -4.2.

Regarding U61C C96A A121G, the “polymerase ribozyme fitness (log ratio)” value was -2.74.

In the case of U61A G83U C93A U144G, the “polymerase ribozyme fitness (log ratio)” value was no more than -4.2.
